Each structure is given as a SMILES string. In all, about 48,000 compounds went through this assay and about 120 (0.25%) were called active. About 4% were inconclusive and are not listed. The call rests on the fitted dose curve; in most records, active means well fitted activation curve with a large enough effect; inconclusive means small, poorly fitted or top-dose-only effect, or another doubt; inactive means no such curve, though single readings can be large or run the other way. Some of the results follow.

A short description of this assay: Primary qHTS for Identification of Small Molecule Activators of Huntingtin-Antisense Promoter Activity. Further: nearly all actives have a fitted effect of over 55% in size. Particulars: HEK293 HTT-AS promoter firefly luciferase reporter (activity 0% = vehicle and -100% = no light), 24 h; series mostly up to 57.5 µM; activity change, positive = activation: at the top concentration. An outline of the steps: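 Firefly luciferase readout (Dual-Glo, 10 min RT) after 24 h, 37 °C compound exposure (final up to 57.5 uM) of HEK293 reporter cells cultured 24 h beforehand; PTC124 at 50 uM final as control inhibitor; activity scaled vehicle 0%, zero RLU -100%.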
For the molecule `COc1ccc(CNC(=O)c2cc3cc(S(=O)(=O)N4CCCCC4)ccc3n2C)c(OC)c1`, the “activity change, positive = activation” value was inactive: -26.4%. As for `O=C1N(Cc2cccc(C(F)(F)F)c2)c2ccccc2S(=O)(=O)N1c1cccc(Cl)c1`, the figure is inactive: -32.7%; as for `COc1ccc(NC(=O)CCc2c(C)nc3c(c2C)c(=O)n(C)c(=O)n3C)cc1OC`, inactive: -14.3%; as for `COc1ccc(NC(=O)CSc2nc(-c3cccs3)cc(C(F)(F)F)c2C#N)cc1`, inactive: 8.19%.

In the case of `Cc1c(Cl)cccc1N1C(N)=C(C#N)C(c2cc(CN3CCOCC3)cs2)C2=C1CCCC2=O` (centres undefined), the “activity change, positive = activation” value is inactive: -15.2%. In the case of `Cc1cc(NC(=O)NCc2ccc3c(c2)CCN3C(=O)c2ccccc2)ccc1Br` it was inactive: -45.9%. As for `CCOc1ccc(S(=O)(=O)c2cn(Cc3ccccc3)c3ccc(OCC)cc3c2=O)cc1`, the figure is inactive: -15.7%; as for `CC(C)(C)OC(=O)N1CCC(c2c(C(=O)NCc3ccco3)cnn2-c2ccccc2)CC1`, inactive: -12.9%. In the case of `Cc1ccc(NC(=O)Cn2cnc3nc4c(cc3c2=O)CCCC4)cc1Cl`, the “activity change, positive = activation” value is inactive: 2.54%. On to `Cc1cc(=O)n2nc(N3CCC(C(=O)NCc4ccccc4)CC3)sc2n1`, for which the “activity change, positive = activation” value is inactive: -5.83%.

`COc1ccc2cc(C(=O)NCc3ccc4c(c3)CCN4C(=O)c3ccccc3)[nH]c2c1`: the “activity change, positive = activation” value is inactive: 14.5%. In the case of `CCn1c(=O)cc(SCC(=O)NCc2ccccc2OC)c2ccccc21` it was inactive: 1.42%; in that of `Cc1cccc(C(=O)NC(=O)Nc2ccc(-c3cc(C(F)(F)F)nn3-c3ccccc3)cc2)c1`, inactive: -25.7%. In the case of `COc1ccc(C(=O)Nc2ccc(OCc3cc(=O)n4ccsc4n3)cc2)cc1OC` it was inactive: 0.958%.

On to `O=C(NCc1cccnc1)C(=O)NCC(c1cccnc1)N1CCN(c2ccccc2F)CC1` (centres undefined), for which the “activity change, positive = activation” value is inactive: -33.4%. As for `O=C(Cn1cc(C(=O)c2ccco2)c2ccccc21)Nc1ccccc1Cl`, the figure is inactive: -25.8%; as for `Cc1cc(C)c2c(=O)cc(C(=O)Nc3ccc(S(=O)(=O)N(C)Cc4ccccc4)cc3)oc2c1`, inactive: -12%; as for `O=C(C1CCN(S(=O)(=O)c2cccc3nonc23)CC1)N1CCN(c2ccccc2F)CC1`, inactive: -27.6%. For the molecule `Cc1nn(-c2ccc(F)cc2)c(-n2cccc2)c1C(=O)NCCCN1CCN(c2cccc(Cl)c2)CC1`, the “activity change, positive = activation” value is inactive: -44.4%. As for `O=c1[nH]c2ccccc2c(=O)n1CCCl`, the figure is inactive: -3.05%; as for `COc1cc(NC(=O)C2CCCN(S(=O)(=O)c3ccc4c(c3)CCCC(=O)N4)C2)cc(OC)c1` (centres undefined), inactive: -15%.

As for `COc1cc(Cl)c(C)cc1NC(=O)Cn1ncc2c(=O)oc3ccccc3c21`, the “activity change, positive = activation” value was inactive: -7.13%. In the case of `CCC(C(=O)OC)n1cnc2c(cnn2-c2ccc(F)cc2)c1=O` (centres undefined) it was inactive: -2.65%; in that of `COc1ccc(-c2nc(SCC(=O)c3ccc(OC)c(Br)c3)n[nH]2)cc1`, inactive: -32.7%; in that of `CSc1ncc(Cl)c(C(=O)Nc2ccc(S(=O)(=O)N3CCCC(C)C3)cc2)n1` (centres undefined), inactive: -39.5%. As for `CCCC(=O)O[C@]1(C(=O)CO)CC[C@H]2[C@@H]3CCC4=CC(=O)CC[C@]4(C)[C@H]3[C@@H](O)C[C@@]21C`, the figure is inactive: -15.1%; as for `CCC(Sc1nc2nccnc2c(=O)n1Cc1ccc(F)cc1)C(=O)NC1CCCCC1` (centres undefined), inactive: -10.1%. In the case of `CCc1cccc(NC(=O)C2CCC(CNS(=O)(=O)c3csc(C(N)=O)c3)CC2)c1` (centres undefined) it was inactive: 1.07%. Take `CCOc1cccc(C2c3[nH]c4ccccc4c3CCN2C(=O)CCC2CCCC2)c1` (centres undefined): the “activity change, positive = activation” value was inactive: -31.1%. As for `Fc1cc(F)c2ncc3c(-c4ccccc4)nn(-c4cccc(Cl)c4)c3c2c1`, the figure is inactive: -13%. In the case of `CC(C)OCCCNC(=O)C(=O)Nc1ccc2nc3n(c(=O)c2c1)CCCCC3` it was inactive: 4.43%.

As to `Cc1cccc(Cn2c(=O)n(Cc3ccccc3)c(=O)c3oc4ccccc4c32)c1`, the “activity change, positive = activation” value was inactive: -11.8%. In the case of `Cc1ccccc1NC(=O)C1CCN(C(=O)c2cnn(-c3ccccc3)c2-n2cccc2)CC1` it was inactive: -19.7%; in that of `Cc1ccc(Sc2ccc(N3CCC(C(=O)Nc4ccc(C)c(F)c4)CC3)nn2)cc1`, inactive: -4.19%. In the case of `COc1cc(NC(=O)N(Cc2ccco2)C2CCN(C(C)=O)CC2)cc(OC)c1OC` it was inactive: -7.18%. In the case of `Cc1cccc(-c2nc3nc(C)cc(NCc4ccccc4Cl)n3n2)c1` it was inactive: -26.3%; in that of `COc1ccc(-c2cc(C(F)(F)F)nc(-n3nc(C(F)(F)F)cc3C)n2)cc1`, inactive: 9.1%. Take `CC1CCN(c2oc(-c3ccc(COc4ccccc4)o3)nc2C#N)CC1`: the “activity change, positive = activation” value is inactive: -25.7%. Consider `CCc1ccc(-n2c(N3CCN(c4cccc(Cl)c4)CC3)nc3ccccc3c2=O)cc1`, for which the “activity change, positive = activation” value was inactive: -22.9%. As for `Cc1ccc(-n2c(SCC(=O)NCc3ccccc3)nc3n[nH]c(C)c3c2=N)cc1Cl`, the figure is inactive: -28.2%; as for `O=C(NCC(c1cccs1)S(=O)(=O)c1cccs1)c1ccc(Cl)cc1` (centres undefined), inactive: -21.3%; as for `Nc1nnc(SCC(=O)Nc2ccccc2)s1`, inactive: 15.1%. As to `COc1cccc(NC(=O)Cn2c(=O)n(CC(=O)NCc3ccc(C)cc3)c(=O)c3sccc32)c1`, the “activity change, positive = activation” value is inactive: -39.6%.

For `Cc1ccc2nc(-c3c[nH]c4ccccc34)c(Nc3ccccc3C)n2c1`, the “activity change, positive = activation” value is inactive: 4.2%. As for `Cc1ccc(C(c2ccccc2)c2c(C)[nH]c3ccccc23)s1` (centres undefined), the figure is inactive: -33.5%; as for `Cc1cc(C)c(NC(=O)CN2C(=O)c3cccnc3Oc3ccc(C)cc32)c(C)c1`, inactive: -12.8%; as for `Cc1ccc(-c2cc(NC(=O)COc3ccc(Cl)c(C)c3)on2)cc1`, inactive: 32.9%.

`CCN1CCN(C(=O)Cn2ncc3c4ccccc4n(Cc4ccccc4)c3c2=O)CC1`: the “activity change, positive = activation” value is inactive: -6.98%. As for `Cc1ccc(/C=C/C(=O)Nc2ccc(S(N)(=O)=O)cc2)o1`, the figure is inactive: 10.7%; as for `Cc1cc(C)c(Cn2c3ccccc3c3cnn(CC(=O)NCc4ccccn4)c(=O)c32)c(C)c1`, inactive: -31.9%; as for `Cn1cncc1[C@@](N)(c1ccc(Cl)cc1)c1ccc2c(c1)c(-c1cccc(Cl)c1)cc(=O)n2C`, inactive: -36.4%. Consider `Cc1nnc(SCC2=C(C(=O)O)N3C(=O)[C@@H](NC(=O)Cn4cnnn4)[C@H]3SC2)s1`, for which the “activity change, positive = activation” value is inactive: 1.98%.

In the case of `O=C(CCS(=O)(=O)c1ccc(Br)cc1)Nc1ccc(Cl)c(C(F)(F)F)c1`, the “activity change, positive = activation” value was inactive: -39.6%. As for `COc1ccccc1CCNC(=O)C(=O)NCC(c1cccs1)S(=O)(=O)c1ccccc1` (centres undefined), the figure is inactive: -28.8%; as for `CCOC(=O)c1cccc(NC(=O)c2cn(-c3cccc(OC)c3)c(=O)c3ccccc23)c1`, inactive: -9.98%; as for `CCCCN(C)CCCNC(=O)Cn1ncc2c3ccccc3n(Cc3ccccc3F)c2c1=O`, inactive: -12.4%.

In the case of `COc1ccc(NC(=O)Cn2c(=O)oc3cc(S(=O)(=O)NCc4ccccc4)ccc32)c(OC)c1`, the “activity change, positive = activation” value is inactive: -31%.

As for `COc1ccc(NS(=O)(=O)c2cc3c(cc2C)NC(=O)CO3)c(OC)c1`, the “activity change, positive = activation” value is inactive: -13%.

Consider `O=C(CSC1=Nc2ccccc2C2=NC(Cc3ccccc3)C(=O)N12)Nc1ccccc1C(F)(F)F` (centres undefined), for which the “activity change, positive = activation” value was inactive: 0.224%.

(Values after PubChem BioAssay AID1508624 (National Center for Advancing Translational Sciences (NCATS), 2021).)
